Laboratory results published in the supplement of paper PMC6089552.
“And” between values parts separate entries of the source, which are not always exact repeats. Equal entries are not always repeated. Hit rate of the full screen: of about 3,200 compounds, about 300 (9.4%) showed activity. The list shows a part of the results, in another mix than the full data.

System: A673/TR/shEF
Assay: cell viability (LOESS-normalised, relative to median of negative controls) (log2 ratio); higher = more viable cells (less compound effect), active = hit call of the paper (over 3 MAD below the median)
Conditions: treatment time: 72 h
How it was run: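 A673/TR/shEF Ewing sarcoma cells (1,500 per well, 384-well plates) were grown with or without doxycycline to induce EWS-FLI1 shRNA knockdown, starting 24 h before compounds. Library compounds at two or more concentrations, with DMSO controls, were added for three days. Cell viability was read by CellTiter-Glo luminescence on an Envision reader, then LOESS-corrected per plate, divided by the median of negative controls and log2-transformed. Hits were wells at least three median absolute deviations from the median of all screened wells.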

[1] = 0.25 µM, library screen: screen1, EWS-FLI1 expression: high (no doxycycline)
[2] = 0.25 µM, library screen: screen1, EWS-FLI1 expression: low (doxycycline-induced shRNA knockdown)
[3] = 0.25 µM, library screen: screen2, EWS-FLI1 expression: high (no doxycycline)
[4] = 0.25 µM, library screen: screen2, EWS-FLI1 expression: low (doxycycline-induced shRNA knockdown)
[5] = 2.5 µM, library screen: screen1, EWS-FLI1 expression: high (no doxycycline)
[6] = 2.5 µM, library screen: screen1, EWS-FLI1 expression: low (doxycycline-induced shRNA knockdown)
[7] = 2.5 µM, library screen: screen2, EWS-FLI1 expression: high (no doxycycline)
[8] = 2.5 µM, library screen: screen2, EWS-FLI1 expression: low (doxycycline-induced shRNA knockdown)

Measured: cell viability (log2)

CNC(=O)Oc1ccc2c(c1)[C@]1(C)CCN(C)[C@@H]1N2C
inactive: [1] 0.0623 and 0.086 | [2] 0.109 and 0.0231 | [3] 0.208 | [4] 0.095 | [5] 0.115 and 0.142 | [6] 0.161 and 0.0648 | [7] 0.149 | [8] 0.0834

COc1ccc(C[C@H]2c3cc(OC)c(OC)cc3CCN2C)cc1OC
inactive: [1] 0.0762 | [2] 0.101 | [5] 0.079 | [6] 0.165

CC1CC(Cl)CCC1C(=O)OC(C)(C)C (stereo not drawn)
inactive: [1] -0.0203 | [2] 0.0889 | [5] 0.151 | [6] 0.103

O=C(O)c1cc[c]([Hg][Cl])cc1
active: [7] -0.0791

FC(F)(F)c1cccc(N2CCNCC2)c1
inactive: [1] 0.112 | [2] 0.0689 | [5] 0.176 | [6] 0.0985

CC1=NN=C(c2ccc(N)cc2)c2cc3c(cc2C1)OCO3
inactive: [3] 0.2 | [4] 0.141 | [7] 0.102 | [8] 0.0639

C=C1C[C@@H]2[C@H](CC[C@]3(C)C(=O)CC[C@@H]23)[C@@]2(C)C=CC(=O)C=C12
inactive: 0.103 µM, library screen: screen3, EWS-FLI1 expression: high (no doxycycline) -0.0682 | 0.103 µM, library screen: screen3, EWS-FLI1 expression: low (doxycycline-induced shRNA knockdown) -0.0022 | 0.308 µM, library screen: screen3, EWS-FLI1 expression: high (no doxycycline) 0.032 | 0.308 µM, library screen: screen3, EWS-FLI1 expression: low (doxycycline-induced shRNA knockdown) 0.0326 | 0.926 µM, library screen: screen3, EWS-FLI1 expression: high (no doxycycline) 0.0425 | 0.926 µM, library screen: screen3, EWS-FLI1 expression: low (doxycycline-induced shRNA knockdown) 0.0172 | 2.8 µM, library screen: screen3, EWS-FLI1 expression: high (no doxycycline) 0.104 | 2.8 µM, library screen: screen3, EWS-FLI1 expression: low (doxycycline-induced shRNA knockdown) 0.0265 | 8.3 µM, library screen: screen3, EWS-FLI1 expression: high (no doxycycline) 0.037 | 8.3 µM, library screen: screen3, EWS-FLI1 expression: low (doxycycline-induced shRNA knockdown) 0.0696 | 25 µM, library screen: screen3, EWS-FLI1 expression: high (no doxycycline) 0.0545 | 25 µM, library screen: screen3, EWS-FLI1 expression: low (doxycycline-induced shRNA knockdown) 0.0523

NS(=O)(=O)c1ccc2c(c1)CNCC2
inactive: [3] 0.162 | [4] 0.085 | [7] 0.143 | [8] 0.0805

CC(=O)[C@H]1CC[C@H]2[C@@H]3CC[C@H]4C[C@H](O)CC[C@]4(C)[C@H]3C(=O)C[C@]12C
active: [7] -2.77 | [8] -0.524

CC(=O)c1c(O)c(C)c(O)c(Cc2c(O)c3c(c(C(=O)/C=C/c4ccccc4)c2O)OC(C)(C)C=C3)c1O
inactive: 0.025 µM, library screen: screen1, EWS-FLI1 expression: high (no doxycycline) 0.0285 | 0.025 µM, library screen: screen1, EWS-FLI1 expression: low (doxycycline-induced shRNA knockdown) 0.0263 | [1] 0.0889 | [2] 0.0306 | [3] 0.209 | [4] 0.109 | [5] 0.055 | [6] -0.0112 | [7] 0.118 | [8] 0.156 | 25 µM, library screen: screen1, EWS-FLI1 expression: low (doxycycline-induced shRNA knockdown) -0.0436
active: 25 µM, library screen: screen1, EWS-FLI1 expression: high (no doxycycline) -0.306

COc1ccccc1N1CCNCC1
inactive: [1] 0.0547 | [2] 0.0205 | [3] 0.228 | [4] 0.0463 | [5] 0.105 | [6] 0.112 | [7] 0.201 | [8] 0.0929
